The source of these data is the supplement of paper PMC12217912.

Some of the results follow. The full chains were built here from the parent and the listed change. Inactive controls read about 0.05.

The chains are these.
B1: TEV protease; numbered along this chain (parent)
chain: MGESLFKGPRDYNPISSSICHLTNESDGHTTSLYGIGFGPFIITNKHLFRRNNGTLVVQSLHGVFKVKDTTTLQQHLVDGRDMIIIRMPKDFPPFPQKLKFREPQREERICLVTTNFQTKSMSSMVSDTSCTFPSGDGIFWKHWIQTKDGQCGSPLVSTRDGFIVGIHSASNFTNTNNYFTSVPKNFMELLTNQEAQQWVSGWRLNADSVLWGGHKVFMVKPEEPFQPVKEATQL

The assay covers variants of B1. In words: raw area under fraction-flipped curve 0-4 h after induction (AUC4h, not background-subtracted), DNA-recorder readout of cleavage of the substrate (dimensionless); higher = more cleavage of the substrate by the protease variant. The following applies: temperature: 34 °C; time window: 0-4 h after rhamnose induction.
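Further: Bxb1 expression induced with 0.2% (w/v) L-rhamnose at OD600 near 0.5, cultures sampled hourly, flipped fraction per protease–substrate barcode pair counted by paired-end Illumina sequencing.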

Turning to MGESLFKGPRDYNPISSSICHLTNESDGHTTSLYGIGFGPFIITNKHLFRRNNGTLVVQSLHGVFKVKDTTTLQQHLVDGRDMIIIRMPKDFPPFPQKLKFREPQREERICLVTTNFQTKSMSSMVSDTSCTFPSGDGVFWKHWIQTKDGQCGSPLVSTRDGFIVGIHSASNFTNTNNYFTSVPKNFMELLTNQEAQQWVSGWRLNADSVLWGGHKVFMVKPEEPFQPVKEATQL [I139V], the “area with substrate ENLCFQS” value worked out at 0.0604, the “area with substrate ENLDFQS” value stood at 0.0672, the “area with substrate ENLEFQS” value was 0.06 and the “area with substrate ENLFFQS” value amounted to 0.0768. The “area with substrate ENLHFQS” value came out at 0.07, the “area with substrate ENLIFQS” value is 0.0881, the “area with substrate ENLKFQS” value turned out to be 0.0822 and the “area with substrate ENLLFQS” value amounted to 0.0859. For the same variant, the “area with substrate ENLNFQS” value worked out at 0.0532, the “area with substrate ENLPFQS” value stood at 0.0636, the “area with substrate ENLQFQS” value worked out at 0.055 and the “area with substrate ENLRFQS” value came out at 0.0761. Further, the “area with substrate ENLSFQS” value was 0.057, the “area with substrate ENLTFQS” value was 0.0774 and the “area with substrate ENLVFQS” value is 0.0662.

Consider MGESLFKGPRDYNPISSSICHLTNESDGHTTSLYGIGFGPFIITNKHLFRRNNGTLVVQSLHGVFKVKDTTTLQQHLVDGRDMIIIRMPKDFPPFPQKLKVREPQREERICLVTTNFQTKSMSSMVSDTSCTFPSGDGIFWKHWIQTKDGQCGSPLVSTRDGFIVGIHSASNFTNTNNYFTSVPKNFMELLTNQEAQQWVSGWRLNADSVLWGGHKVFMVKPEEPFQPVKEATQL [F101V], for which the “area with substrate ENLCFQS” value stood at 0.0437, the “area with substrate ENLFFQS” value is 0.0527, the “area with substrate ENLHFQS” value was determined as 0.0481 and the “area with substrate ENLIFQS” value is 0.0683. Further, the “area with substrate ENLKFQS” value is 0.0708, the “area with substrate ENLNFQS” value was 0.0772, the “area with substrate ENLQFQS” value is 0.0611 and the “area with substrate ENLSFQS” value worked out at 0.0385.

Regarding MGESLFKGPRDYNPISSSICHLTNESDGHTTSLYGIGFGPFIITNKHLFRRNNGTLVVQSLHGVFKVKDTTTLQQHLVDGRDMIIIRMLKDFPPFPQKLKFREPQREERICLVTTNFQTKSMSSMVSDTSCTFPSGDGIFWKHWIQTKDGQCGSPLVSTRDGFIVGIHSASNFTNTNNYFTSVPKNFMELLTNQEAQQWVSGWRLNADSVLWGGHKVFMVKPEEPFQPVKEATQL [P89L], the “area with substrate ENLCFQS” value was found to be 0.0633, the “area with substrate ENLFFQS” value turned out to be 0.0621, the “area with substrate ENLGFQS” value was 0.0529 and the “area with substrate ENLHFQS” value turned out to be 0.062. In addition, the “area with substrate ENLIFQS” value worked out at 0.0581, the “area with substrate ENLLFQS” value came out at 0.0498, the “area with substrate ENLNFQS” value is 0.0457 and the “area with substrate ENLPFQS” value was 0.0166.

As for MGESLFKGPRDYNPISSSICHLTNESDGHTTSLYGIGFGPFIITNKHLFRRNNGTLVVQSLHGVFKVKDTTTLQQHLVDGRDMIIIRMPKDFPPFPQKLKFREPQREERICLVTTNFQTKSMSSMVSDTSCTFPSGDGIFWKHWIQMKDGQCGSPLVSTRDGFIVGIHSASNFTNTNNYFTSVPKNFMELLTNQEAQQWVSGWRLNADSVLWGGHKVFMVKPEEPFQPVKEATQL [T147M], the “area with substrate ENLCFQS” value came to 0.0763, the “area with substrate ENLDFQS” value came out at 0.0733, the “area with substrate ENLEFQS” value was found to be 0.0585 and the “area with substrate ENLGFQS” value came to 0.0516. Also, the “area with substrate ENLRFQS” value was 0.0573.

MGESLFKGPRDYNPISSSICHLTNESDGHTTSLYGIGFGPFIITNKHLFRRNNGTLVVQSLHGVFKVKDTTTLQQHLVDGRDMIIIRMPKDFPPFPQKLKFREPQRLERICLVTTNFQTKSMSSMVSDTSCTFPSGDGIFWKHWIQTKDGQCGSPLVSTRDGFIVGIHSASNFTNTNNYFTSVPKNFMELLTNQEAQQWVSGWRLNADSVLWGGHKVFMVKPEEPFQPVKEATQL [E107L]: the “area with substrate ENLCFQS” value turned out to be 0.0603, the “area with substrate ENLDFQS” value was found to be 0.0654, the “area with substrate ENLFFQS” value worked out at 0.0683 and the “area with substrate ENLIFQS” value worked out at 0.0949. Besides, the “area with substrate ENLKFQS” value is 0.0672, the “area with substrate ENLNFQS” value stood at 0.0637, the “area with substrate ENLQFQS” value is 0.0812 and the “area with substrate ENLRFQS” value was found to be 0.0723. For the same variant, the “area with substrate ENLWFQS” value was found to be 0.0752.

In the case of MGESLFKGPRDYNPISSSICHLTNESDGHTTSLYGIGFGPFIITNKHLFRRNNGTLVVQSLHGVFKVKDTTTLQQHLVDGRDMIIIRMPKDFPPFPQKLKFREPQREERICLVTTLFQTKSMSSMVSDTSCTFPSGDGIFWKHWIQTKDGQCGSPLVSTRDGFIVGIHSASNFTNTNNYFTSVPKNFMELLTNQEAQQWVSGWRLNADSVLWGGHKVFMVKPEEPFQPVKEATQL [N116L], the “area with substrate ENLCFQS” value came out at 0.0757, the “area with substrate ENLDFQS” value stood at 0.0613, the “area with substrate ENLEFQS” value was found to be 0.0807 and the “area with substrate ENLFFQS” value came out at 0.0828. For the same variant, the “area with substrate ENLHFQS” value was determined as 0.0705, the “area with substrate ENLKFQS” value is 0.0812, the “area with substrate ENLLFQS” value came to 0.0828 and the “area with substrate ENLNFQS” value was 0.0386. For the same variant, the “area with substrate ENLRFQS” value stood at 0.0649, the “area with substrate ENLSFQS” value is 0.0513, the “area with substrate ENLVFQS” value was determined as 0.0776 and the “area with substrate ENLWFQS” value was found to be 0.0894.

With MGESLFKGPRDYNPISSSICHLTNESDGHTTSLYGIGFGPFIITNKHLFRRNNGTLVVQSLHGVFKVKDTTTLQQHLVKGRDMIIIRMPKDFPPFPQKLKFREPQREERICLVTTNFQTKSMSSMVSDTSCTFPSGDGIFWKHWIQTKDGQCGSPLVSTRDGFIVGIHSASNFTNTNNYFTSVPKNFMELLTNQEAQQWVSGWRLNADSVLWGGHKVFMVKPEEPFQPVKEATQL [D79K], the “area with substrate ENLCFQS” value stood at 0.0448, the “area with substrate ENLDFQS” value stood at 0.0648, the “area with substrate ENLEFQS” value worked out at 0.0558 and the “area with substrate ENLFFQS” value is 0.0695. Moreover, the “area with substrate ENLHFQS” value is 0.0529, the “area with substrate ENLMFQS” value came out at 0.0894, the “area with substrate ENLNFQS” value turned out to be 0.0637 and the “area with substrate ENLPFQS” value was found to be 0.0603. In addition, the “area with substrate ENLQFQS” value was 0.0859, the “area with substrate ENLRFQS” value came to 0.0595, the “area with substrate ENLSFQS” value turned out to be 0.076 and the “area with substrate ENLWFQS” value amounted to 0.0633.

As for MGESLFKGPRDYNPISSSICHLTNESDGHTTSLYGIGFGPFIITNKHLFRRNNGTLVVQSLHGVFKVKDTTTLQQHLVDGRDMAIIRMPKDFPPFPQKLKFREPQREERICLVTTNFQTKSMSSMVSDTSCTFPSGDGIFWKHWIQTKDGQCGSPLVSTRDGFIVGIHSASNFTNTNNYFTSVPKNFMELLTNQEAQQWVSGWRLNADSVLWGGHKVFMVKPEEPFQPVKEATQL [I84A], the “area with substrate ENLCFQS” value worked out at 0.0713, the “area with substrate ENLDFQS” value was determined as 0.062, the “area with substrate ENLFFQS” value stood at 0.069 and the “area with substrate ENLGFQS” value worked out at 0.0671. Also, the “area with substrate ENLHFQS” value was determined as 0.0661, the “area with substrate ENLIFQS” value was 0.0737, the “area with substrate ENLKFQS” value amounted to 0.0643 and the “area with substrate ENLLFQS” value was 0.057. Moreover, the “area with substrate ENLNFQS” value was determined as 0.0456, the “area with substrate ENLPFQS” value is 0.0597, the “area with substrate ENLQFQS” value is 0.0619 and the “area with substrate ENLRFQS” value turned out to be 0.0694. Also, the “area with substrate ENLSFQS” value was 0.0661.

As to MGESLFKGPRDYNPISSSICHLTNESDGHTTSLYGIGFGPFIITNKHLFRRNNGTLVVQSLHGVFKVKDTTTLQQHLVDGRDMIIIRMPKDFPPFPQKLKFREPQREERICLVTTNFQTKSMSSMVSDTSCTFPSGDGIFWKHWVQTKDGQCGSPLVSTRDGFIVGIHSASNFTNTNNYFTSVPKNFMELLTNQEAQQWVSGWRLNADSVLWGGHKVFMVKPEEPFQPVKEATQL [I145V], the “area with substrate ENLCFQS” value worked out at 0.0633, the “area with substrate ENLDFQS” value worked out at 0.0556, the “area with substrate ENLLFQS” value was determined as 0.0833 and the “area with substrate ENLMFQS” value was 0.0867. The “area with substrate ENLQFQS” value worked out at 0.0419, the “area with substrate ENLSFQS” value turned out to be 0.058, the “area with substrate ENLTFQS” value worked out at 0.0771 and the “area with substrate ENLVFQS” value came to 0.0977. For the same variant, the “area with substrate ENLWFQS” value was 0.0696.

Consider MGESLFKGPRDYNPISSSICHLTNESDGHTTSLYGIGFGPFIITNKHLFRRNNGTLVVQSLHGVFKVKDTTTLQQHLVDGRDMIIIRMPKDFPPFPQKLKFREPQREERNCLVTTNFQTKSMSSMVSDTSCTFPSGDGIFWKHWIQTKDGQCGSPLVSTRDGFIVGIHSASNFTNTNNYFTSVPKNFMELLTNQEAQQWVSGWRLNADSVLWGGHKVFMVKPEEPFQPVKEATQL [I110N], for which the “area with substrate ENLCFQS” value amounted to 0.0641, the “area with substrate ENLDFQS” value came to 0.0747, the “area with substrate ENLEFQS” value was determined as 0.0656 and the “area with substrate ENLFFQS” value turned out to be 0.0497. Moreover, the “area with substrate ENLHFQS” value is 0.0577, the “area with substrate ENLKFQS” value is 0.0671, the “area with substrate ENLLFQS” value is 0.0584 and the “area with substrate ENLMFQS” value turned out to be 0.0664. In addition, the “area with substrate ENLPFQS” value is 0.0616, the “area with substrate ENLSFQS” value was 0.0495, the “area with substrate ENLVFQS” value amounted to 0.0322 and the “area with substrate ENLWFQS” value amounted to 0.0475.
